Laboratory results taken from the supplement of paper PMC7238544.
Counter-ions that a name gives are not always drawn. ± gives the standard deviation of the averaged measurements. The list shows a part of the results.

Key:
Conditions in all cases: priming compound concentration 100 µM
hAMSC donor 1 [1] = assay: Hoechst total cell count ratio vs vehicle control; higher = more cells (less toxicity)
hAMSC donor 2 [2] = assay: as above
hAMSC donor 1 [3] = assay: transgenic luciferase activity (RLU/mg protein) fold change vs vehicle control (ratio); higher = more transgene expression
hAMSC donor 2 [4] = assay: as above
hAMSC donor 1 [5] = assay: transfection efficiency (EGFP+ cells / Hoechst count) fold change vs vehicle control (ratio); hAMSC are human adipose-derived mesenchymal stem cells given an EGFP-luciferase plasmid by lipofection; higher = enhanced transfection
hAMSC donor 2 [6] = assay: as above
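Throughout, for Hoechst total cell count ratio vs vehicle control: compound added 30 min before Lipofectamine 3000 lipoplex delivery, triplicate-well means expressed against DMSO vehicle control wells of the same 96-well plate.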
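Throughout, for transfection efficiency (EGFP+ cells / Hoechst count) fold change vs vehicle control: compounds added 30 min before Lipofectamine 3000 lipoplex transfection, triplicate means relative to DMSO vehicle wells on the same plate, luciferase RLU normalized to BCA total protein.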
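Throughout, for transgenic luciferase activity (RLU/mg protein) fold change vs vehicle control: compounds in DMSO added 30 min before Lipofectamine 3000 transfection of pEGFP-Luc in 96-well plates, values are means of triplicate wells over DMSO vehicle wells on the same plate.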

SMILES: CCCCC(=O)O[C@]1(C(=O)CO)CC[C@H]2[C@@H]3CCC4=CC(=O)CC[C@]4(C)[C@H]3[C@@H](O)C[C@@]21C [Hydrocortisone 17-valerate]
- Hoechst total cell count ratio (hAMSC donor 1 [1]): 1.26 ± 0.18
- Hoechst total cell count ratio (hAMSC donor 2 [2]): 1.05 ± 0.022
- transgenic luciferase activity (hAMSC donor 1 [3]): 8.84 ± 1.1
- transgenic luciferase activity (hAMSC donor 2 [4]): 1.25 ± 0.43
- transfection efficiency (hAMSC donor 1 [5]): 2.16 ± 0.79
- transfection efficiency (hAMSC donor 2 [6]): 1.29 ± 0.16

SMILES: Cc1cccc(C)c1NC(=O)C1CCCCN1C (configuration not stated) [Mepivacaine hydrochloride]
- Hoechst total cell count ratio (hAMSC donor 1 [1]): 1.32 ± 0.11
- Hoechst total cell count ratio (hAMSC donor 2 [2]): 1.6 ± 0.47
- transgenic luciferase activity (hAMSC donor 1 [3]): 0.664 ± 0.65
- transgenic luciferase activity (hAMSC donor 2 [4]): 0.866 ± 0.23
- transfection efficiency (hAMSC donor 1 [5]): 0.957 ± 0.19
- transfection efficiency (hAMSC donor 2 [6]): 1.21 ± 0.65

SMILES: CCCSc1ccc2[nH]c(NC(=O)OC)nc2c1 [Albendazole]
- Hoechst total cell count ratio (hAMSC donor 1 [1]): 0.538 ± 0.048
- Hoechst total cell count ratio (hAMSC donor 2 [2]): 1.17 ± 0.15
- transgenic luciferase activity (hAMSC donor 1 [3]): 2 ± 2.8
- transgenic luciferase activity (hAMSC donor 2 [4]): 1.03 ± 0.21
- transfection efficiency (hAMSC donor 1 [5]): 1.92 ± 0.51
- transfection efficiency (hAMSC donor 2 [6]): 0.868 ± 0.14

SMILES: CN(C)CC/C=C1/c2ccccc2COc2ccc(CC(=O)O)cc21 [Olopatadine hydrochloride]
- Hoechst total cell count ratio (hAMSC donor 1 [1]): 1.29 ± 0.26
- Hoechst total cell count ratio (hAMSC donor 2 [2]): 1.48 ± 0.4
- transgenic luciferase activity (hAMSC donor 1 [3]): 0.526 ± 0.13
- transgenic luciferase activity (hAMSC donor 2 [4]): 1 ± 0.16
- transfection efficiency (hAMSC donor 1 [5]): 1.05 ± 0.41
- transfection efficiency (hAMSC donor 2 [6]): 0.875 ± 0.15

SMILES: Cc1ncc([N+](=O)[O-])n1CCO [Metronidazole]
- Hoechst total cell count ratio (hAMSC donor 1 [1]): 0.848 ± 0.061
- Hoechst total cell count ratio (hAMSC donor 2 [2]): 0.933 ± 0.033
- transgenic luciferase activity (hAMSC donor 1 [3]): 1.03 ± 0.66
- transgenic luciferase activity (hAMSC donor 2 [4]): 1.18 ± 0.14
- transfection efficiency (hAMSC donor 1 [5]): 0.984 ± 0.35
- transfection efficiency (hAMSC donor 2 [6]): 1.34 ± 0.089

SMILES: OC(CCN1CCCC1)(c1ccccc1)C1CCCCC1 (configuration not stated) [Procyclidine hydrochloride]
- Hoechst total cell count ratio (hAMSC donor 1 [1]): 1.41 ± 0.13
- Hoechst total cell count ratio (hAMSC donor 2 [2]): 1.18 ± 0.11
- transgenic luciferase activity (hAMSC donor 1 [3]): 0.986 ± 0.29
- transgenic luciferase activity (hAMSC donor 2 [4]): 0.642 ± 0.08
- transfection efficiency (hAMSC donor 1 [5]): 0.806 ± 0.21
- transfection efficiency (hAMSC donor 2 [6]): 0.707 ± 0.1

SMILES: C[C@]12C=CC(=O)C=C1CC[C@@H]1[C@@H]2[C@@H](O)C[C@@]2(C)[C@H]1CC[C@]2(O)C(=O)CO [Prednisolone]
- Hoechst total cell count ratio (hAMSC donor 1 [1]): 1.2 ± 0.046
- Hoechst total cell count ratio (hAMSC donor 2 [2]): 1.43 ± 0.23
- transgenic luciferase activity (hAMSC donor 1 [3]): 5.15 ± 1.1
- transgenic luciferase activity (hAMSC donor 2 [4]): 4.04 ± 0.85
- transfection efficiency (hAMSC donor 1 [5]): 2.49 ± 0.25
- transfection efficiency (hAMSC donor 2 [6]): 1.2 ± 0.11

SMILES: CC(C)(C#N)c1cc(Cn2cncn2)cc(C(C)(C)C#N)c1 [Anastrozole]
- Hoechst total cell count ratio (hAMSC donor 1 [1]): 1.27 ± 0.16
- Hoechst total cell count ratio (hAMSC donor 2 [2]): 0.877 ± 0.17
- transgenic luciferase activity (hAMSC donor 1 [3]): 1.18 ± 0.16
- transgenic luciferase activity (hAMSC donor 2 [4]): 0.91 ± 0.15
- transfection efficiency (hAMSC donor 1 [5]): 1.06 ± 0.35
- transfection efficiency (hAMSC donor 2 [6]): 1.07 ± 0.18

SMILES: CC(C)(S)C(N)C(=O)O (racemic) [DL-Penicillamine]
- Hoechst total cell count ratio (hAMSC donor 1 [1]): 1.3 ± 0.061
- Hoechst total cell count ratio (hAMSC donor 2 [2]): 1.52 ± 0.082
- transgenic luciferase activity (hAMSC donor 1 [3]): 0.627 ± 0.35
- transgenic luciferase activity (hAMSC donor 2 [4]): 0.707 ± 0.088
- transfection efficiency (hAMSC donor 1 [5]): 0.828 ± 0.42
- transfection efficiency (hAMSC donor 2 [6]): 0.855 ± 0.039

SMILES: CC[C@H](C)C(=O)O[C@H]1C[C@@H](C)C=C2C=C[C@H](C)[C@H](CC[C@@H]3C[C@@H](O)CC(=O)O3)[C@H]21 [Lovastatin]
- Hoechst total cell count ratio (hAMSC donor 1 [1]): 0.78 ± 0.075
- Hoechst total cell count ratio (hAMSC donor 2 [2]): 0.964 ± 0.073
- transgenic luciferase activity (hAMSC donor 1 [3]): 0.714 ± 0.38
- transgenic luciferase activity (hAMSC donor 2 [4]): 0.58 ± 0.098
- transfection efficiency (hAMSC donor 1 [5]): 1.31 ± 0.36
- transfection efficiency (hAMSC donor 2 [6]): 1.05 ± 0.26

SMILES: COc1cccc2c1C(=O)c1c(O)c3c(c(O)c1C2=O)C[C@@](O)(C(=O)CO)C[C@@H]3O[C@H]1C[C@H](N)[C@@H](O)[C@H](C)O1 [Epirubicin hydrochloride]
- Hoechst total cell count ratio (hAMSC donor 1 [1]): 0.045 ± 0.0052
- Hoechst total cell count ratio (hAMSC donor 2 [2]): 0.026 ± 0.0044
- transgenic luciferase activity (hAMSC donor 1 [3]): 0.000716 ± 0.00055
- transgenic luciferase activity (hAMSC donor 2 [4]): 0.000723 ± 0.00045
- transfection efficiency (hAMSC donor 1 [5]): 2.06 ± 0.97
- transfection efficiency (hAMSC donor 2 [6]): 2.31 ± 0.61

SMILES: CCN(CC)CCOC(=O)c1ccc(N)cc1 [Procaine hydrochloride]
- Hoechst total cell count ratio (hAMSC donor 1 [1]): 1.13 ± 0.17
- Hoechst total cell count ratio (hAMSC donor 2 [2]): 1.17 ± 0.13
- transgenic luciferase activity (hAMSC donor 1 [3]): 1.01 ± 1
- transgenic luciferase activity (hAMSC donor 2 [4]): 0.683 ± 0.12
- transfection efficiency (hAMSC donor 1 [5]): 1.26 ± 0.072
- transfection efficiency (hAMSC donor 2 [6]): 1.41 ± 0.076
